Assay results from a collection of fitness landscapes (doi:10.1126/science.1257360).
The list shows a part of the results.

B1: PhoQ; a variant is named by its letters at X, in order, P23837 (parent)
chain: MKKLLRLFFPLSLRVRFLLATAAVVLVLSLAYGMVALIGYSVSFDKTTFRLLRGESNLFYTLAKWENNKLHVELPENIDKQSPTMTLIYDENGQLLWAQRDVPWLMKMIQPDWLKSNGFHEIEADVNDTSLLLSGDHSIQQQLQEVREDDDDAEMTHSVAVNVYPATSRMPKLTIVVVDTIPVELKSSYMVWSWFIYVLSANLLLVIPLLWVAAWWSLRPIEALAKEVRELEEHNRELLNPATTRELTSLVRNLNRLLKSERERYDKYRTTLTDLTHSLKTPLXXLQXXLRSLRSEKMSVSDAEPVMLEQISRISQQIGYYLHRASMRGGTLLSRELHPVAPLLDNLTSALNKVYQRKGVNISLDISPEISFVGEQNDFVEVMGNVLDNACKYCLEFVEISARQTDEHLYIVVEDDGPGIPLSKREVIFDRGQRVDTLRPGQGVGLAVAREITEQYEGKIVAGESMLGGARMEVIFGRQHSAPKDE

Variants of: B1
Test: enrichment ratio after two sorts for PhoP signalling (ratio (wild type AVST 3.29)); higher = more functional
Conditions: with PhoP (E. coli)

| Variant | enrichment ratio |
| --- | --- |
| MEGI | ≤ 0.25 |
| CLVY | ≤ 0.25 |
| EFSR | ≤ 0.25 |
| WVER | ≤ 0.25 |
| FSEH | ≤ 0.25 |
| VSES | ≤ 0.25 |
| SLSI | 12.7 |
| PDPM | ≤ 0.25 |
| ASMG | 17.6 |
| FPMY | ≤ 0.25 |
| FTKQ | ≤ 0.25 |
| YYWS | ≤ 0.25 |
| HEWN | ≤ 0.25 |
| ILRM | ≤ 0.25 |
| GFLP | ≤ 0.25 |
| YWTV | ≤ 0.25 |
| WFMS | ≤ 0.25 |
| SPHM | ≤ 0.25 |
| IWLP | ≤ 0.25 |
| LRHR | ≤ 0.25 |
| FDIW | ≤ 0.25 |
| QLMN | ≤ 0.25 |
| ALPW | ≤ 0.25 |
| DESD | ≤ 0.25 |
| AKLC | 3.66 |

| Variant | enrichment ratio |
| --- | --- |
| VNVA | ≤ 0.25 |
| QMHR | ≤ 0.25 |
| VYVA | ≤ 0.25 |
| SYDK | ≤ 0.25 |
| FSDE | ≤ 0.25 |
| KIRS | 0.8 |
| SHSP | ≤ 0.25 |
| KENR | ≤ 0.25 |
| QDAN | ≤ 0.25 |
| HKGG | ≤ 0.25 |
| LTNI | ≤ 0.25 |
| ADES | ≤ 0.25 |
| ESPP | ≤ 0.25 |
| HIIM | ≤ 0.25 |
| WKCQ | ≤ 0.25 |
| RQPR | ≤ 0.25 |
| AQHK | ≤ 0.25 |
| MQYA | ≤ 0.25 |
| YPVP | ≤ 0.25 |
| RDGC | ≤ 0.25 |
| FAHF | ≤ 0.25 |
| QQHM | ≤ 0.25 |
| GQDL | ≤ 0.25 |
| VCDH | ≤ 0.25 |
| FLLT | ≤ 0.25 |

| Variant | enrichment ratio |
| --- | --- |
| TTEN | 5.63 |
| YEWH | ≤ 0.25 |
| RMRS | ≤ 0.25 |
| KHIP | ≤ 0.25 |
| NFRM | ≤ 0.25 |
| LDIG | ≤ 0.25 |
| IYQS | ≤ 0.25 |
| LFLY | ≤ 0.25 |
| SWGN | ≤ 0.25 |
| MACT | ≤ 0.25 |
| PPMG | ≤ 0.25 |
| FTSE | ≤ 0.25 |
| VKGR | ≤ 0.25 |
| IFLF | ≤ 0.25 |
| YIVD | ≤ 0.25 |
| PAGI | ≤ 0.25 |
| FKAA | ≤ 0.25 |
| PFQY | ≤ 0.25 |
| MPME | ≤ 0.25 |
| QNQY | ≤ 0.25 |
| DINI | ≤ 0.25 |
| IHAM | ≤ 0.25 |
| AANI | ≤ 0.25 |
| IVII | ≤ 0.25 |
| NPEK | ≤ 0.25 |

| Variant | enrichment ratio |
| --- | --- |
| FAKY | ≤ 0.25 |
| PQCE | ≤ 0.25 |
| PAFQ | ≤ 0.25 |
| AGGK | ≤ 0.25 |
| VKML | ≤ 0.25 |
| MMFV | ≤ 0.25 |
| RMPK | ≤ 0.25 |
| WPDN | ≤ 0.25 |
| SSDA | ≤ 0.25 |
| YWIM | ≤ 0.25 |
| TGFM | 6.75 |
| SHME | ≤ 0.25 |
| ICCR | ≤ 0.25 |
| LIES | ≤ 0.25 |
| DSRG | ≤ 0.25 |
| SEWH | ≤ 0.25 |
| AQVY | 2 |
| AGNV | ≤ 0.25 |
| SFHW | ≤ 0.25 |
| QEHT | 9.94 |
| QPAT | ≤ 0.25 |
| PWKT | 0.549 |
| GKVH | ≤ 0.25 |
| MLEL | ≤ 0.25 |
| NPAG | ≤ 0.25 |

| Variant | enrichment ratio |
| --- | --- |
| DVGP | ≤ 0.25 |
| LAFP | ≤ 0.25 |
| HADH | ≤ 0.25 |
| TAWE | 24.5 |
| NIVT | ≤ 0.25 |
| FQET | ≤ 0.25 |
| HNRT | ≤ 0.25 |
| VRPN | ≤ 0.25 |
| NKNL | ≤ 0.25 |
| WKSD | ≤ 0.25 |
| DFQE | ≤ 0.25 |
| RTMR | ≤ 0.25 |
| ERGF | ≤ 0.25 |
| LYQV | ≤ 0.25 |
| LWHT | ≤ 0.25 |
| IDNQ | ≤ 0.25 |
| QHSH | ≤ 0.25 |
| TSVY | 1.5 |
| HQLT | ≤ 0.25 |
| SQRM | ≤ 0.25 |
| REHY | ≤ 0.25 |
| EQPK | ≤ 0.25 |
| DGAH | ≤ 0.25 |
| GQFK | ≤ 0.25 |
| GMCR | ≤ 0.25 |

| Variant | enrichment ratio |
| --- | --- |
| PCAA | ≤ 0.25 |
| TYNM | 4.53 |
| AKEE | ≤ 0.25 |
| IGQH | ≤ 0.25 |
| KFLN | ≤ 0.25 |
| YWGH | ≤ 0.25 |
| AASG | 8 |
| PEYQ | ≤ 0.25 |
| GEQT | ≤ 0.25 |
| LGYT | ≤ 0.25 |
| SWLI | ≤ 0.25 |
| HHTF | ≤ 0.25 |
| EFYN | ≤ 0.25 |
| YWTQ | ≤ 0.25 |
| DDDD | ≤ 0.25 |
| SPYQ | ≤ 0.25 |
| TARD | 0.665 |
| LSKP | ≤ 0.25 |
| ISYW | ≤ 0.25 |
| PKTG | ≤ 0.25 |
| PKFP | ≤ 0.25 |
| VCMT | ≤ 0.25 |
| DECL | ≤ 0.25 |
| WYHP | ≤ 0.25 |
| ICGC | ≤ 0.25 |

| Variant | enrichment ratio |
| --- | --- |
| VPMN | ≤ 0.25 |
| GYCN | ≤ 0.25 |
| ELYL | ≤ 0.25 |
| PMLD | ≤ 0.25 |
| WGRR | ≤ 0.25 |
| YMLD | ≤ 0.25 |
| NWCT | ≤ 0.25 |
| NDID | ≤ 0.25 |
| HCVK | ≤ 0.25 |
| SDIL | 8.57 |
| APNP | ≤ 0.25 |
| FPLT | ≤ 0.25 |
| DAER | ≤ 0.25 |
| WWYY | ≤ 0.25 |
| NYQL | ≤ 0.25 |
| FVED | ≤ 0.25 |
| ITRW | ≤ 0.25 |
| PNWR | ≤ 0.25 |
| HIYM | ≤ 0.25 |
| STIE | ≤ 0.25 |
| NACH | ≤ 0.25 |
| PWLN | ≤ 0.25 |
| PLYG | ≤ 0.25 |
| HIYS | ≤ 0.25 |
| ITGN | ≤ 0.25 |

| Variant | enrichment ratio |
| --- | --- |
| RVIP | ≤ 0.25 |
| TQMG | 32.5 |
| YHGQ | ≤ 0.25 |
| IDLS | ≤ 0.25 |
| TLGK | ≤ 0.25 |
| SGEG | ≤ 0.25 |
| INNW | ≤ 0.25 |
| MSPS | ≤ 0.25 |
| NCFM | ≤ 0.25 |
| PICG | ≤ 0.25 |
| ENRK | ≤ 0.25 |
| WIIG | ≤ 0.25 |
| GEAI | 9.37 |
| STCM | 13.3 |
| SWIN | ≤ 0.25 |
| LGHL | 2.13 |
| FTLI | 10.3 |
| QECK | 1.71 |
| RVKM | ≤ 0.25 |
| SIYD | ≤ 0.25 |
